Reference: paper PMC3705270
Results are given in words; binding and its absence hold for the method and conditions named. For some assays here: Binding seen in cells or lysates may run through a third protein. Some results given as binding are weak or reduced against the parent protein; the word gives no strength.

The chains behind the UniProt entries cited, without tags or fusion partners.
UniProt P04608: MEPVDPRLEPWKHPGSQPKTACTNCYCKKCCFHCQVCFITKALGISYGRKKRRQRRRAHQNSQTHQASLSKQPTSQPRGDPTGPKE
UniProt P05919: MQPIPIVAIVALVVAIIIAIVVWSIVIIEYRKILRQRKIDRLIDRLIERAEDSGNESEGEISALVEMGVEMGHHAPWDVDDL

Tests used:
[1] = target: HIV-1 nucleocapsid protein NC (pGBK-NC, two-hybrid fusion) (HIV-1) (UniProt P04591); assay: two-hybrid
[2] = target: GST-fused NC (purified recombinant, from pGNC1) (HIV-1) (UniProt P04591); assay: pull-down; only the target purified
[3] = target: Flag-tagged NC (pCMV/Flag-NC) in HEK293 cells (HIV-1) (UniProt P04591); assay: co-IP

| Substance | binding [1] | binding [3] | further results |
| --- | --- | --- | --- |
| HIV-1 Tat (pGAD-Tat, two-hybrid fusion) (from UniProt P04608 1-86) | binds |  |  |
| HIV-1 Vpu (pGAD-Vpu, two-hybrid fusion) (from UniProt P05919 1-82) | no binding |  |  |
| V5-tagged Tat (pcDNA/V5-Tat) in BHK-21 cell lysate (from UniProt P04608 1-86) |  |  | binding [2]: binds |
| V5-tagged Tat (pcDNA/V5-Tat) in HEK293 cells (from UniProt P04608 1-86) |  | binds |  |
| V5-tagged Vpu (pcDNA/V5-Vpu) in HEK293 cells (from UniProt P05919 1-82) |  | no binding |  |
